PubChem BioAssay AID463173 (ICCB-Longwood Screening Facility, Harvard Medical School, 2010)
Among all 52,000 compounds or so, about 1,700 (3.3%) were called active. No stated cut-off is given here; in the data, active means survival mostly below about 52% (no sharp cut-off); inactive means mostly above about 56%. The list shows a part of the results.

Test system: Wild type
Test: S. aureus survival, RN4220 and DeltatarO strains – OD600, teichoic acid synthesis inhibitors, primary screen (AID 463173)
Conditions: S. aureus RN4220 wild type/DeltatarO growth, OD600, 18 h, active compounds read low, screened at 18.75 µg/mL (by protocol)

Compound	survival
CN1CCN(C2=NC(=O)/C(=C\C=C/c3ccccc3)S2)CC1	inactive: 118%
Cc1cc(Nc2ccc(Cl)cc2C)nc(-n2nc(C)cc2C)n1	inactive: 76%
CC(C)(C)c1ccccc1NC(=O)CSc1nc(-c2cccs2)cc(C(F)(F)F)n1	active: 10%
Cc1nn(CC(=O)Nc2cc(F)ccc2F)c(=O)c2cccn12	inactive: 85%
Cc1cc(C)n(-c2n[nH]c(=S)c3ccccc23)n1	inactive: 103%
O=C(NCc1ccc2c(c1)CCN2C(=O)c1ccc(F)cc1)c1ccco1	inactive: 111%
CCOc1ccc(C(=O)Nc2ccc(-n3nncc3-c3ccccc3)cc2)cc1OCC	inactive: 135%
CCC(=O)Nc1ccc2nc3c(=O)n(C)c(=O)n(C)c3nc2c1	inactive: 73%
Cc1c(CNC2CCCCC2)c(C(=O)O)c(C)n1Cc1ccc(F)cc1	inactive: 88%
CC1(C)CC(=O)C2=C(C1)OC1=C(C(=O)CC(C)(C)C1)C2c1ccc2c(c1)OCO2	inactive: 104%
CCN(C(=O)c1cc2c(=O)n3cccc(C)c3nc2s1)c1ccc(C)c(C)c1	inactive: 74%
CCC(NC(=O)Nc1cc(OC)ccc1OC)c1c(-n2cccc2)sc2c1CCN(CC)C2 (centres undefined)	inactive: 75%
Cc1oc2ccc(O)c(CN3CCN(C)CC3)c2c1C(=O)Nc1cccc(C(F)(F)F)c1	inactive: 92%
O=C(CSc1nc2c([nH]c3ccccc32)c(=O)n1-c1cccc(Cl)c1)N1CCOCC1	inactive: 65%
CCCCCC(=O)Nc1ccc(NC(=O)c2cc3ccccc3o2)c(OC)c1	inactive: 91%
COc1cccc(CNC(=O)C2(c3cccs3)CCOCC2)c1	inactive: 73%
CC(C)c1nc2n(n1)C1(CCCCC1)[C@@H]1CCCC[C@@H]1N2	inactive: 123%
CCOC(=O)c1c(NC(=O)CSc2cn(CCNC(=O)c3ccccc3OC)c3ccccc23)sc2c1CCC2	inactive: 152%
COc1ccc(-c2nc3c4ccccc4n(CC(=O)N4CCN(c5ccc(F)cc5)CC4)c(=O)n3n2)cc1	inactive: 127%
CCOc1ccc(-n2c(CC)nc3c(cnn3-c3ccc(Cl)cc3)c2=O)cc1	inactive: 63%
O=C(Cn1c(=O)c2ccccc2n(CC(=O)Nc2ccc(F)cc2)c1=O)NCCc1ccccc1	inactive: 127%
Cc1cccc(Cn2c(C)c(CNC3CCCCCC3)c(C(=O)O)c2C)c1	inactive: 88%
COc1c(Cl)cc(C(=O)N(Cc2ccc(C)o2)C2CCS(=O)(=O)C2)cc1Cl (centres undefined)	inactive: 91%

Compound	survival
Cc1oc(-c2cccc(Cl)c2)nc1CN1CCCC(C(=O)N2CCN(c3ccc(F)cc3)CC2)C1 (centres undefined)	inactive: 130%
COc1ccc(OC)c(S(=O)(=O)N2CCC(C(=O)NCCC3=CCCCC3)CC2)c1	inactive: 104%
COc1cccc(C(=O)c2cn(CC(=O)NCCc3ccccc3)c3nc(C)ccc3c2=O)c1	inactive: 64%
CCCN(CCC)CCCNC(=O)Cn1cc2c(n1)-c1c(oc(C(=O)N3CCCC3)c1C)CC2	inactive: 90%
Cc1[nH]c(=O)[nH]c(=O)c1NC(=O)c1ccccc1	inactive: 115%
CCCNC(=O)C(CC)n1nc(CC)n2c(cc3oc(C)cc32)c1=O (centres undefined)	inactive: 113%
CCOC(=O)c1cc2c(=O)n3ccccc3nc2n(CC2CCCO2)c1=NC(=O)c1ccc(OC)cc1OC (centres undefined)	inactive: 70%
O=C(OC1CSc2nc3ccccc3n2C1)c1ccccc1Cl (centres undefined)	inactive: 121%
CCOc1ccc(NC(=O)NCc2ccc3c(c2)CCN3C(C)=O)cc1	inactive: 83%
Cc1cc(C)n(-c2nc3ccccc3nc2N2CCN(c3cccc(C)c3C)CC2)n1	active: -1%
COc1cccc(NC(=O)Cn2c(=O)n(CCc3ccccc3)c(=O)c3c4c(sc32)CN(C(C)=O)CC4)c1	inactive: 78%
CCCNC(=O)C1CCN(S(=O)(=O)c2ccccc2)CC1	inactive: 94%
Cc1ccc(C(=O)c2oc3ccccc3c2NC(=O)COc2ccccc2Cl)cc1	inactive: 118%
COCCNC(=S)N1CCC(NC(=O)Nc2ccc(F)cc2)CC1	inactive: 110%
CCS(=O)(=O)N1CCC(NC(=O)C(Cc2ccc(OC)c(OC)c2)NC(C)=O)CC1 (centres undefined)	inactive: 86%
CCc1cccc(NC(=O)c2nc(-c3ccncc3)no2)c1	inactive: 101%
CCOc1ccc(C(=O)Nc2ccc(-c3nc4cc(C(C)C)ccc4o3)cc2)cc1Cl	inactive: 90%
COc1ccc(C2=NN(CC(=O)NCc3ccccc3Cl)C(=O)CC2)cc1	inactive: 153%
Cc1ccc(CCNC(=O)c2c(C)oc3ncnc(N4CCOCC4)c23)cc1	inactive: 131%
Fc1cccc(NCc2cccn2-c2nnc(N3CCOCC3)s2)c1	inactive: 77%
COc1cccc(CNC(=O)N2CCC(CN3CCC(C)CC3)CC2)c1	inactive: 81%
Cc1ccc(NCc2cccn2-c2nnc(N3CCC(C(=O)NCCc4ccccc4)CC3)s2)cc1	inactive: 85%
Cc1ccc(-c2cc(C(F)F)n3ncc(C(=O)NCC4CCCO4)c3n2)cc1 (centres undefined)	inactive: 115%

Compound	survival
Cc1ccc(CN(C(=O)COc2ccc(C(C)(C)C)cc2)C2CCS(=O)(=O)C2)o1 (centres undefined)	inactive: 85%
COc1ccc(-c2c3c(nc4sc(C(=O)Nc5ccc(Cl)cc5)c(N)c24)CC(C)(C)CC3=O)cc1	inactive: 92%
COc1cc2cc(CNc3ccc(C)cc3)c(=O)n(CC(=O)Nc3ccc(C(C)C)cc3)c2cc1OC	inactive: 118%
COc1ccc(NC(=O)CSc2nc(-c3ccc(OC)cc3)[nH]c2-c2ccc(F)cc2)cc1	inactive: 92%
COc1ccccc1NC(=O)c1ccccc1NC(=O)c1ccccc1	inactive: 56%
CN(C)c1ccc(CNC(=O)CCC(=O)N2Cc3ccccc3Oc3ncccc32)cc1	inactive: 77%
CCn1ccc2cc(S(=O)(=O)N3CCC(C(=O)NCCc4ccc(SC)cc4)CC3)ccc21	inactive: 99%
Clc1ccc(CNc2nc3ccccc3c3nc(-c4cccnc4)nn23)cc1	inactive: 86%
CCc1cccc(C)c1NC(=O)CN1C(=O)c2c(c3ccccc3n2C)C1c1ccc(OC)cc1 (centres undefined)	inactive: 70%
COCCc1nn2c(=O)cc(COC(=O)c3cccs3)nc2s1	inactive: 90%
Cc1occc1C(=O)NN=C1c2ccccc2-c2ccccc21	inactive: 121%
CCOc1ccccc1NC(=O)CN(CCc1ccccc1)S(=O)(=O)c1ccc(C)cc1	inactive: 101%
Cn1nnc2c(N3CCCCC3)ncnc21	inactive: 88%
COc1cccc(CCNC(=O)c2c(O)nc3cc(C)ccn3c2=O)c1	inactive: 83%
Cc1c(NC=O)c(=O)n(-c2ccccc2)n1C	inactive: 107%
COc1ccc(-c2nc(CCNC(=O)c3cccs3)cs2)cc1OC	inactive: 159%
CCCCN(C)C(=O)CN1C(=O)CCn2nc(-c3cn(C)c4ccccc34)cc21	inactive: 128%
CCc1ccccc1NC(=O)C(NS(=O)(=O)c1ccc2c(c1)CCC(=O)N2)c1ccccc1 (centres undefined)	inactive: 83%
COCCCNC(=O)Nc1cc(C(=O)NCc2ccc(OC)cc2)ccc1N1CCCC1	inactive: 93%
Cc1ccc2c(c1)-c1c(ssc1=S)C(C)(C)N2C(=O)CN1CCOCC1	inactive: 124%
COC(=O)c1ccccc1NC(=O)c1ccc2c(c1)CCN2S(=O)(=O)c1ccc(C)cc1	inactive: 87%
O=c1cc(-c2ccccc2)n2c(SCc3ccc([N+](=O)[O-])cc3)nnc2[nH]1	inactive: 71%
O=C1OC(c2ccc(Br)o2)=N/C1=C/c1ccco1	inactive: 115%

Compound	survival
Cc1ccc(NC(=O)C2=C(C(=O)O)CCCC2)cc1Br	inactive: 94%
O=C(O)Cn1nc(N2CCN(c3ccc(F)cc3)CC2)ccc1=O	inactive: 94%
CCc1ccc(C(=O)c2cnc3ccc(C)cc3c2S(=O)(=O)c2ccc(OC)cc2)cc1	inactive: 128%
C=CCN1C=C/C(=C\C=C(C#N)C#N)c2ccccc21	inactive: 102%
COc1cc(OC)c(NC(=O)C2=C(C)C(=O)OC23CCCCC3)cc1Cl	inactive: 82%
CC(C)(O)c1cc(=N)sc2nc3ccccc3n12	inactive: 107%
COc1ccccc1CNC(=O)c1cc(Sc2cccc(Cl)c2)nc2ccccc12	inactive: 128%
O=C(CCCn1c(=O)c2sccc2n(Cc2ccc(F)cc2Cl)c1=O)NCc1ccc2c(c1)OCO2	inactive: 90%
CCCCc1ccc(C(=O)Nc2ccc3nc(N(CC)CC)cc(C)c3c2)cc1	inactive: 118%
COc1ccc2cc(CNc3ccc(C)cc3)c(=O)n(CC(=O)Nc3ccc(OC)c(Cl)c3)c2c1	inactive: 70%
Cc1ccc2c(c1)N(C(=O)N1CCC(C(=O)NCCC3=CCCCC3)CC1)CC(C)O2 (centres undefined)	inactive: 85%
Cc1c(C(=O)N2CCCC2)oc2c1-c1nn(CC(=O)NCc3cccc(F)c3)cc1CC2	inactive: 85%
CCNC(=O)c1cnc2sc(N3CCC(C)CC3)nn2c1=O	inactive: 83%
O=C(Nc1cccc(Cl)c1)c1ccc2nc(Cc3ccccc3)oc2c1	inactive: 71%
OCc1cnc(SCc2cccc(F)c2)n1Cc1ccc(F)cc1	inactive: 159%
Cc1ccccc1Nc1ncnc2c1c(-c1ccccc1)cn2-c1ccc(F)cc1	inactive: 71%
O=C(CCc1nc2cccnc2n1Cc1ccccc1)NCc1cccc(Cl)c1	inactive: 71%
Cc1ncc(COC(=O)C(C)C)c2cc(C(=O)Nc3ccccc3C(F)(F)F)c(=O)oc12	inactive: 159%
CCN(CC)CCCNC(=O)CCc1c(C)n(CC)c2cc(-c3ccccc3OC)nn2c1=O	inactive: 78%
CCCCn1c(CNC(=O)C23CC4CC(CC(C4)C2)C3)nnc1SCC(=O)Nc1ccccc1	inactive: 85%
